Results on 54 sequences are retold here after paper PMC7819943, “Rice protein-binding microarrays: a tool to detect cis-acting elements near promoter regions in rice”.

The list shows a part of the results.

The target in this assay is T1, OsWOX13 (Oryza sativa, UniProt Q5QMM3 1-267).
T1 sequence: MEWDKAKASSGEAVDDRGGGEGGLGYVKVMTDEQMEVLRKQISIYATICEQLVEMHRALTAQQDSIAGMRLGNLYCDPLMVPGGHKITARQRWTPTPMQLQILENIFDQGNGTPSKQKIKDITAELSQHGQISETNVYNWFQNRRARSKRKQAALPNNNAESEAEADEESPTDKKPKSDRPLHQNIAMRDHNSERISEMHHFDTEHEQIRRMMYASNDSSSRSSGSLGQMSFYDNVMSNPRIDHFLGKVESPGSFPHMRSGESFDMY
Nature of the assay: protein-binding microarray (RPBM); PBS, 2% BSA, 51.3 ng/ul salmon testes DNA, 50 uM zinc acetate, 200 nM TF, 25 C, 1 h; high values mean tight binding. Particulars: protein: recombinant; tags: N-terminal polyhistidine and DsRed monomer fusion (pET32a); label: CyDye5-dUTP incorporated in the synthesized complementary strand; 3' TTTTT single-stranded linker to array surface; dsDNA, one strand shown. A digest of the protocol: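 The binding signal is fluorescence intensity per feature, in arbitrary units, read on an Axon 4000B scanner. Polyhistidine- and DsRed-tagged transcription factors (N-terminal fusions) from E. coli BL21-CodonPlus were purified on Ni–NTA and applied at 200 nM for 1 h at 25 °C to a double-stranded, BSA-blocked custom Agilent array in buffer with 50 µM zinc acetate.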
Take “ACACTAATTAGGGAGATAATCTCTCTTGTGGTGTTTGTGTCGGAGTCACCTAGTGCAG”: the binding signal was 52300 fluorescence intensity (a.u.).

As to “TCAATCCAGCACAGTAATTACCAAATCACTCTAGTTAGAACGGAGTCACCTAGTGCAG”, the binding signal was 4610 fluorescence intensity (a.u.).

As to “TTAAATTTAATCTTTAAGAATTATATTGCACATACAATTTCGGAGTCACCTAGTGCAG”, the binding signal was 14600 fluorescence intensity (a.u.).

In the case of “GAGTTTAAATAGATTTTGATATGATCATGAGACTTGACAACGGAGTCACCTAGTGCAG”, the binding signal is 12900 fluorescence intensity (a.u.).

On to “GTTGCAATTAGTTACTATTAGCACATGGAGTCTGTACTATCGGAGTCACCTAGTGCAG”, for which the binding signal is 6000 fluorescence intensity (a.u.).

For the sequence “ATTTCTAATTGGTGTTTTGAATATTTGCTCTAGACTTTTGCGGAGTCACCTAGTGCAG”, the binding signal was 33100 fluorescence intensity (a.u.).

Consider “GGATTGACAGACACCAAGGAACACATGTAGTAGTAAATGACGGAGTCACCTAGTGCAG”, for which the binding signal is 18300 fluorescence intensity (a.u.).

Turning to “CAAAATTTGATAAATTTTGATTAATTTCGGTTGAATTTTACGGAGTCACCTAGTGCAG”, the binding signal was 12900 fluorescence intensity (a.u.).

“AAGTAATTATTAATTCTTTTCCTATCATTTGTTTCATTATCGGAGTCACCTAGTGCAG”: the binding signal was 16700 fluorescence intensity (a.u.).

Take “CGAAATTAAGTTTGGAGATTTTCAGGCACCTTCTTTTCACCGGAGTCACCTAGTGCAG”: the binding signal was 7840 fluorescence intensity (a.u.).

Take “CACTTTAATTCAAAATTTAATCCACTCTTTTAAGTGGATTCGGAGTCACCTAGTGCAG”: the binding signal is 3360 fluorescence intensity (a.u.).

With “AGATGTTTGAATAATTGATACAATATCAGGAGCGAATATGCGGAGTCACCTAGTGCAG”, the binding signal was 4430 fluorescence intensity (a.u.).

Turning to “TATAACTATTTAAATGACATGTAGTAAACGATAAGGCTTACGGAGTCACCTAGTGCAG”, the binding signal was 6800 fluorescence intensity (a.u.).

“CATCTATTTTGGAATTGATGGAGTAAGGCCGTGTTTAGATCGGAGTCACCTAGTGCAG”: the binding signal was 3700 fluorescence intensity (a.u.).

On to “CCTTTCTCCTTCAATCATCATCACACACCCCATCCTCTAACGGAGTCACCTAGTGCAG”, for which the binding signal was 12600 fluorescence intensity (a.u.).

Consider “GCGCTTAATCTGTTAGTTACATTATAACTATTCGTATTCGCGGAGTCACCTAGTGCAG”, for which the binding signal is 3650 fluorescence intensity (a.u.).

Consider “TTAAAATTATGTTTGAAAATTTAAATTTTAGACGCGGCTTCGGAGTCACCTAGTGCAG”, for which the binding signal was 14900 fluorescence intensity (a.u.).

“GAATAATTATCAAAGCAAAATGCCAATGAACAGCGGAGGCCGGAGTCACCTAGTGCAG”: the binding signal is 15200 fluorescence intensity (a.u.).

On to “CATACCCCTTGGAATTGATCAAGACCCGATTGACTATTGACGGAGTCACCTAGTGCAG”, for which the binding signal was 3940 fluorescence intensity (a.u.).

“CTAACAATGTCTTTCGTGATTAGTTTCACACTTCTCACCACGGAGTCACCTAGTGCAG”: the binding signal was 5130 fluorescence intensity (a.u.).

Consider “CTTAATATTTTACTCATTGATTAGCTGAAATATTTGACTACGGAGTCACCTAGTGCAG”, for which the binding signal was 15900 fluorescence intensity (a.u.).

For the sequence “CTTGTATGTTTGTGGATTGATATATTATATATTGATATATCGGAGTCACCTAGTGCAG”, the binding signal is 6720 fluorescence intensity (a.u.).

On to “GCAAAATTTGATAATAACAAGCAGCCTTGCAAACTGCCATCGGAGTCACCTAGTGCAG”, for which the binding signal is 8340 fluorescence intensity (a.u.).

For the sequence “CTTAACTTTTATAATATACCATCATCGTACAGTAGACTCTCGGAGTCACCTAGTGCAG”, the binding signal is 4450 fluorescence intensity (a.u.).

With “TTGATGGATTCACCGGATTGTGCATATTTGCATCGTGGGACGGAGTCACCTAGTGCAG”, the binding signal is 5930 fluorescence intensity (a.u.).

Consider “AATATCTCTTGGATTGATTATCTTGAGTAAACACTGGTTTCGGAGTCACCTAGTGCAG”, for which the binding signal is 5420 fluorescence intensity (a.u.).

In the case of “TTACTTGAATTAATTTAGTTCTGGGAGCCATGAGAAATGTCGGAGTCACCTAGTGCAG”, the binding signal was 3640 fluorescence intensity (a.u.).

On to “TACTAATTTTATTGTTCATTTGGCATGAATTACAAGATGCCGGAGTCACCTAGTGCAG”, for which the binding signal is 22300 fluorescence intensity (a.u.).

On to “AGCTAATCTAATAGCTAATTGATATAATAGTTGTTTACTACGGAGTCACCTAGTGCAG”, for which the binding signal was 34000 fluorescence intensity (a.u.).

As for “CTAATTGAAATCACAAATGCTGAGTTGCTGACATGCACCACGGAGTCACCTAGTGCAG”, the binding signal was 27000 fluorescence intensity (a.u.).

With “TTCTTTAATTAAATTTAAAACAATTTGAGTTTGATCAAAGCGGAGTCACCTAGTGCAG”, the binding signal was 33500 fluorescence intensity (a.u.).

Consider “CGTGAAATTTTCGCAAATTTTGTCATTACGAAGACAACATCGGAGTCACCTAGTGCAG”, for which the binding signal was 7120 fluorescence intensity (a.u.).

On to “CCTGTTAAATTGATCTGCCCTGATTAATTGACCCACCGACCGGAGTCACCTAGTGCAG”, for which the binding signal is 38100 fluorescence intensity (a.u.).

As for “TGATTTGCATTAATTTGTAGCCACATTTTCTGTTCCTTTGCGGAGTCACCTAGTGCAG”, the binding signal is 15800 fluorescence intensity (a.u.).

With “AACCAACAAATTTGTAATGGCATGGATCCAATTAACCCTCCGGAGTCACCTAGTGCAG”, the binding signal was 7500 fluorescence intensity (a.u.).

In the case of “TAATTATTGAACACACTAATTAAGTATTACGATGCACCTCCGGAGTCACCTAGTGCAG”, the binding signal was 6340 fluorescence intensity (a.u.).

“AAATAGAATTATCTCTATCAACATGATCAAATGAGAGGGACGGAGTCACCTAGTGCAG”: the binding signal is 4680 fluorescence intensity (a.u.).

Consider “GTTAATTTCGTTTCGCTAGTAGATAGCGTGACAGTGTGAGCGGAGTCACCTAGTGCAG”, for which the binding signal was 10300 fluorescence intensity (a.u.).

Turning to “GTGGAGGTGATGTGATGTGATTAGTTGACGAGACGGGGAGCGGAGTCACCTAGTGCAG”, the binding signal was 15600 fluorescence intensity (a.u.).

With “TACTTAAATTAACATGAAACGGCAATGGGGAAATTTTGTGCGGAGTCACCTAGTGCAG”, the binding signal is 22400 fluorescence intensity (a.u.).

On to “AATCAATTTTATTTTCTCACTAGATTACTTTTATCCTCAACGGAGTCACCTAGTGCAG”, for which the binding signal was 3690 fluorescence intensity (a.u.).

Take “AGTGCGTTGGTGATTTGCCAGTAAACAAAACAACACCCGTCGGAGTCACCTAGTGCAG”: the binding signal is 5380 fluorescence intensity (a.u.).

With “TGTTGATAAACATGTTATAAATGCATGCGCTCTCAAGGCGCGGAGTCACCTAGTGCAG”, the binding signal is 3200 fluorescence intensity (a.u.).

For “AAAATAACTTAGTAATGTTAATTTTACAAAGCTGATGTTGCGGAGTCACCTAGTGCAG”, the binding signal was 7280 fluorescence intensity (a.u.).

Consider “ATTAATTGATTGGATTGGTTGTGTGCATTATTTCATCTAACGGAGTCACCTAGTGCAG”, for which the binding signal is 65200 fluorescence intensity (a.u.).

For “GATAATTTGTAATTCTGTTAAAATGCATGAAGAATAAAGACGGAGTCACCTAGTGCAG”, the binding signal was 16300 fluorescence intensity (a.u.).

“TTTCAATTAGGTGGGCGAGAGTGGGGTTTAACCAATAGAGCGGAGTCACCTAGTGCAG”: the binding signal is 7290 fluorescence intensity (a.u.).

As for “TATAGATTAGAACGCACCTTTCACGCGAGTATTTGCCTTTCGGAGTCACCTAGTGCAG”, the binding signal is 6830 fluorescence intensity (a.u.).

As to “TTTAGATAGATATATATATTTAGATTCATTAACATCAATACGGAGTCACCTAGTGCAG”, the binding signal is 4410 fluorescence intensity (a.u.).

Turning to “AATCACTTTGCTAATTGCTTTATTAATCAAGCAGGGTACGCGGAGTCACCTAGTGCAG”, the binding signal is 16000 fluorescence intensity (a.u.).

Take “ACCGTAACTGTAGTCATTGCATCCAATCTGGCAACGATAGCGGAGTCACCTAGTGCAG”: the binding signal is 4870 fluorescence intensity (a.u.).

Take “TACTTAATTTCGTTGTAAAGATGGATGAGGGTTAGAGCTACGGAGTCACCTAGTGCAG”: the binding signal was 5560 fluorescence intensity (a.u.).

Consider “GCGTTGATTTTAAATTCGAATTTGATTTTAATTCTAGGGGCGGAGTCACCTAGTGCAG”, for which the binding signal was 40600 fluorescence intensity (a.u.).

In the case of “AATTAGATTGCTTTATTTTGAGACATGGTAGTATAATGTTCGGAGTCACCTAGTGCAG”, the binding signal was 27400 fluorescence intensity (a.u.).
